Screen size: about 48,000 compounds; about 450 (0.94%) were called active. Inconclusive results (about 19%) are left out. Calls follow the shape of the dose curve; as a rule, active = well fitted inhibition curve with a large enough effect; inconclusive = small, poorly fitted or top-dose-only effect; inactive = no such curve, though single readings can be large or run the other way. The list shows a part of the results.
Experiment: Primary qHTS for Identification of Small Molecule Inhibitors of Huntingtin Promoter Activity; also: nearly all actives have a fitted effect of over 50% in size
Conditions: HEK293 HTT promoter firefly luciferase reporter (activity 0% = vehicle and -100% = no light), 24 h; series mostly up to 57.5 µM; activity change, negative = inhibition: at the top concentration
Method in brief: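 Luminescence was read after Dual-Glo reagent and a 10 min room-temperature incubation. Values were normalized to vehicle (0% activity) and zero RLU (-100% activity). Reporter HEK293 cells had been exposed to compounds (up to 57.5 uM final) for 24 h.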

Activity change, negative = inhibition, inactive:
Cc1cc(C)c(NC(=O)c2cc(C)nc3c2c(C)nn3-c2cccc(F)c2)c(C)c1 -2.48%
Cc1cc2oc(C(=O)N(Cc3ccc(Cl)cc3)Cc3ccco3)c(C)c2cc1Cl -25.6%
CCc1ccc(-c2nn(-c3ccc(OC)cc3)c3c2cnc2ccc(OC)cc23)cc1 -10.1%
O=C(CSc1nccn1Cc1ccc2c(c1)OCO2)Nc1ccccc1F -15.7%
CCCn1c(=O)sc2cc(NC(=O)c3ccccc3Cl)ccc21 -3.19%
COc1cc(NC(=O)CCn2nc(C)cc2C)cc(OC)c1OC 4.19%
CCC1CCCCN1CCCNC(=O)c1cn(C)c2ccc(S(=O)(=O)N(C)C3CCCCC3)cc2c1=O (stereo not drawn) -22.8% [at 11.5 µM]
COc1cccc(N2CCN(C(=O)c3cccn3-c3nnc(N4CCCCC4)s3)CC2)c1 -9.68%
COc1cc(/C=C(/C#N)c2nc(-c3cc4ccccc4oc3=O)cs2)ccc1O 18%
Cc1cccc(NC(=O)CSc2nc3c([nH]c4ccccc43)c(=O)n2-c2cc(C)cc(C)c2)c1 -4.09%
Cc1c(Cl)cccc1NC(=O)Nc1c[nH]c(=O)[nH]c1=O 6.86%
CC1CCCCN1C(=O)CSc1nc(-c2ccccc2)no1 (stereo not drawn) 56.5%
CSc1cccc(-n2nnc(-c3nsc(NC(=O)c4cccs4)n3)c2C)c1 12.1%
CCOC(=O)c1ccccc1NC(=O)CSc1nc(=O)[nH]c2c1CCCC2 -5.53%
CCc1ccc2occ(CC(=O)N(Cc3ccccc3)C3CCS(=O)(=O)C3)c2c1 (stereo not drawn) -16.7%
COc1ccc(-n2c(C)nc3c(cnn3-c3ccc(C)c(C)c3)c2=O)cc1Cl -21.5%
COc1cccc(CNC(=O)Cn2c(=O)ccc3cc(S(=O)(=O)N4CCCC4)ccc32)c1 -0.132%
CCN(CC)CCCNC(=O)c1cn(CC)c2ccc(S(=O)(=O)N3CCC(C)CC3)cc2c1=O -0.835%
Cc1cc(=O)n(CC(=O)N2CCCCC2)c2c1c(C)nn2C -3.32%
CN(C1CCCCC1)S(=O)(=O)c1ccc2c(c1)c(=O)c(C(=O)N1CCN(c3ccccc3)CC1)cn2C -2.49%
O=C(O)c1ccc(NC(=O)c2ccc(Cl)c(S(=O)(=O)N3CCCCCC3)c2)cc1 -7.68%
O=S(=O)(NCCS(=O)(=O)N1CCN(c2ccccc2)CC1)c1ccccc1 -29.3%
COC(=O)c1ccc(NC(=O)C(C)Sc2nc(=O)cc(N)n2CCc2ccccc2)cc1 (stereo not drawn) -17.8%
Cc1nc2c3ccccc3nc(NNC(=O)CCC(=O)O)n2n1 2.98%
Cc1ccc(NC(=O)CN2C(=O)CCSc3ccccc32)c(C)c1 -10%
COc1ccc(CCNC(=O)c2ccc3c(c2)nc(C)n3-c2ccc(Br)cc2)cc1OC -26.1%
Nc1ccc(S(=O)(=O)NCc2ccccc2)cc1 -5.36%
O=C(Nc1ccc(Cl)cc1Cl)c1cc(S(=O)(=O)NCc2ccc3c(c2)OCO3)ccc1F -28.7%
Cc1ccccc1NC(=O)c1cc2c([nH]c1=O)CC(C)(C)CC2=O 74.6%
COc1ccccc1Cn1cc(C(=O)c2ccccc2)c(=O)c2cc(OC)c(OC)cc21 2.16%
COc1cc(OC)c(NC(=O)C2=C(C)C(=O)OC23CCN(C(C)=O)CC3)cc1Cl -1.66%
Cc1ccc(-n2ncc3c(=O)n(Cc4cccc(Cl)c4)cnc32)cc1C -5.16%
Cc1ccc(CSc2nc3cccnc3n2Cc2ccc(C(=O)NC3CC3)cc2)cc1 9.61%
O=C(NCc1ccccc1)c1cccn1-c1nnc(N2CCCCC2)s1 -22%
CC1CC(OC(=O)c2ccccc2O)CC(C)(C)C1 (stereo not drawn) 6.79%
COc1ccc(Cn2c(C(=O)O)c(CNCc3ccco3)c3ccc(C)cc32)cc1 -17.1%
COCCNC(=O)CSc1c(C)cnc2c1c(=O)n(C)c(=O)n2C -5.57%
Cc1ccc(NC(=O)Cn2cnc3c(oc4ccccc43)c2=O)cc1Cl 7.78%
COc1ccc(NC(=O)CCCOc2cc(=O)n(C)c3ccccc23)c(OC)c1 23.8%
CCCn1c2ccccc2c2cnn(CC(=O)NCCc3ccc(S(N)(=O)=O)cc3)c(=O)c21 -7.62%
Cn1c(NCc2cccc(Cl)c2)nc2ccccc21 -2.46%
C=Cc1ccc(CN2C(=O)N(c3ccc(C)c(C)c3)S(=O)(=O)c3ccccc32)cc1 -23.3%
CCOc1ccc(NC(=O)c2cc3cc4ccc(C)cc4nc3o2)cc1 8.9%
Brc1cccc(-c2nnn3c2nc(NC2CCCCC2)c2ccccc23)c1 -11.4%
Cc1nn(-c2ccc(N3CCOCC3)nn2)c(C)c1CCC(=O)NCc1ccc(Cl)cc1 -32%
CC1CCCCN1CCNC(=O)c1ccc(Cn2c(SCc3ccccc3)nc3cccnc32)cc1 (stereo not drawn) 32.4%
COc1ccc2nc3sc(C(=O)NCCc4ccc(Cl)cc4)cc3cc2c1 -3.78%
COc1ccc(-c2nc3ccccc3o2)cc1NC(=O)COc1cc(C)cc(C)c1 -2.59%
Cc1oc2c(c1C(=O)Nc1ccc(OC(F)(F)F)cc1)C1=NCCN1C=N2 -5.49%
COc1ccc(NS(=O)(=O)c2cnc(N)nc2)cc1Cl -11.8%
CC(=O)c1ccc(Oc2ncnc3c2oc2ccccc23)cc1 54.1%
COc1ccc(NC(=O)CCS(=O)(=O)c2cc3c4c(c2)CCN4C(=O)CC3)c(OC)c1 -8.16%
COc1ccc(C(=O)c2c(N)c(C(=O)Nc3ccccc3Cl)c3ccccn23)cc1 -18.7%
O=C(COc1ccc2oc3c(c2c1)CCCC3)Nc1cccc(Br)c1 -1.83%
Cc1cc(=O)[nH]c2nnc(SCC(N)=O)n12 -8.55%
COc1cc(C(=O)NCCc2sc(-c3ccc(C)cc3)nc2C)cc(OC)c1OC -19.4%
CC1CCN(C(=O)Cn2cc(SCC(=O)NCc3ccc(F)cc3)c3ccccc32)CC1 -19.3%
CCCCc1ccc(C(=O)c2c(N)c(C(=O)Nc3cccc(OC)c3)c3ccccn23)cc1 -5.58%
Cc1nnc(N2C(=O)c3oc4ccccc4c(=O)c3C2c2cccc(OCCC(C)C)c2)s1 (stereo not drawn) -15.6% [at 11.5 µM]
COCCCNC(=O)c1c(NC(=O)Cc2coc3cc(C)ccc23)sc2c1CCCC2 -38.1%
COc1ccc(C(=O)/C=C/c2cn(CC(O)CN3CCCCCC3)c3ccccc23)cc1OC (stereo not drawn) -20%
O=[N+]([O-])c1cc(-c2nc(-c3ccccc3)no2)ccc1NCc1ccco1 49.4%
Cc1ccc(-c2noc(-c3ccc(N4CCOCC4)c([N+](=O)[O-])c3)n2)cc1 -30.9%
COc1ccc(NC(=O)CSc2nc3ccccc3nc2N2CCOCC2)c(OC)c1 -18.8%
Cc1ccc(C(=O)c2oc3ccccc3c2NC(=O)COc2ccccc2C)cc1 10.8%
Cc1ccccc1CN1C(=O)c2ccccc2S(=O)c2ccc(C(=O)N3CCOCC3)cc21 (stereo not drawn) -15.2%
Cn1c(=O)c2cc(C(=O)NCCCN3CCN(c4ccc(F)cc4)CC3)sc2c2ccccc21 -16.4%
Cc1ccccc1CNC(=O)CN1C(=O)CCCc2ccccc21 5.55%
N[C@H](Cc1c[nH]c2ccccc12)C(=O)O 2.24%
Cc1ccc(C2CC(=O)N(Cc3ccc(F)cc3)c3c2c(C)nn3-c2nc(C)cc(C)n2)cc1 (stereo not drawn) -27.3%
COc1ccc(CCNC(=O)CCCn2c(=O)c3ccccc3n(CC(=O)Nc3ccccc3C)c2=O)cc1OC 1.46%
O=C(CN1CCN(Cc2ccc(F)cc2)C1=O)NCc1ccc(F)cc1 -6.04%
Cc1sc(C2C(C#N)=C(N)N(c3ccc(Cl)cc3)C3=C2C(=O)CCC3)cc1CN1CCOCC1 (stereo not drawn) -13.6%
O=C(COc1ccccc1)N(Cc1cccnc1)c1nc2c(F)cc(F)cc2s1 -23.1%
CC1CCN(S(=O)(=O)c2ccc3c(c2)N(CC(=O)NCCCOC(C)C)C(=O)CO3)CC1 -14.7%
Cc1ccsc1CN(C(=O)COc1ccccc1Cl)C1CCS(=O)(=O)C1 (stereo not drawn) -9.66%
CCOC(=O)CSc1nc2sc3c(c2c(=O)n1Cc1ccccc1)CC(C(C)C)OC3 (stereo not drawn) 8.84%
CCC(C)NC(=O)CCCn1c(=O)c2cccn2c2ccccc21 (stereo not drawn) 7.08%
CCC(C(=O)NC1CCCCC1)n1c(SCc2ccccc2F)nc2ccncc21 (stereo not drawn) -24.9%
COCCNC(=O)CN1C(=O)COc2ccc(S(=O)(=O)N3CCCCCC3)cc21 -13%
CCc1ccc(NC(=O)CSc2ccc(-c3sc(-c4ccccc4)nc3C)nn2)cc1 0.961%
CCN(Cc1ccccc1)c1nc2c(S(=O)(=O)c3ccccc3)nnn2c2ccc(Cl)cc12 -17.3%
Cc1nn(C(C)C(=O)NCCc2ccccc2)c(=O)c2c1sc1ccccc12 (stereo not drawn) -23.9%
Cc1cc(C)c(NC(=O)CSc2nc3ccccc3c3nc(-c4ccccc4)nn23)c(C)c1 -11.5%
CCc1ccc(C(c2ccccc2)c2c(C)[nH]c3ccccc23)s1 (stereo not drawn) -24.7%
Cc1cccc(CNC(=O)c2ccc3c(c2)N(C)CCS3)c1 -21.5%
COc1ccc(NC(=O)Cn2c(=O)n(CCCC(=O)NCc3ccccc3Cl)c(=O)c3ccccc32)c(OC)c1 -27.8%
Cc1ccccc1CNC(=O)Cn1nc(C)c2nn(-c3ccc(Cl)cc3)c(C)c2c1=O -29.9%
CCOC(=O)c1sc2ccccc2c1S(=O)(=O)Nc1cc(OC)ccc1OC -16.1%
COc1ccc(CNCc2c(C(=O)O)c(C)n(Cc3ccccc3C)c2C)cc1OC -14%
Cc1ccc(C)c(N2CCN(S(=O)(=O)c3ccc4[nH]c5c(c4c3)CCCC5)CC2)c1 -11.2%
COc1ccc(N2CCN(c3ncccc3-c3nc(-c4ccccc4C)no3)CC2)cc1 -4.64%
N#Cc1nc(-c2ccc(COc3ccc(Cl)cc3)o2)oc1N1CCCCC1 -26.2%
COc1ccccc1N1CCN(c2nc3c(S(=O)(=O)c4ccccc4)nnn3c3ccc(Cl)cc23)CC1 4.1%
COc1ccc(CNS(=O)(=O)c2ccc(C(=O)N(C)C)s2)cc1 -23.6%
Fc1ccc(N2CCN(Cc3nnc(-c4ccccc4Cl)o3)CC2)cc1 -29.5%
CCc1cccc(C)c1Nc1c(-c2ccc(F)cc2)nc2sccn12 -23%
CCOc1ccc(NC(=O)CSc2ncc(S(=O)(=O)c3ccc(F)c(C)c3)c(=O)[nH]2)cc1 -9.81%
